Measurements: PubChem BioAssay AID686978 (National Center for Advancing Translational Sciences (NCATS), 2013)
Values joined by “and” are separate entries in the source; they are usually repeats but may differ in a detail not shown here. Equal entries are not always repeated. Out of some 420,000 compounds screened, about 64,000 (15%) were called active. This list was built around the results that the source calls inconclusive (neither active nor inactive); the mix of calls is not that of the screen. Calls follow the shape of the dose curve; as a rule, active = well fitted inhibition curve with a large enough effect; inconclusive = small, poorly fitted or top-dose-only effect; inactive = flat fitted curve, though single readings scatter. Potencies of inconclusive entries are doubtful fits and often do not repeat.

Experiment: qHTS for Inhibitors of human tyrosyl-DNA phosphodiesterase 1 (TDP1): qHTS in cells in absence of CPT; also: nearly all actives have a fitted effect of over 55% in size
Conditions: DT40 Tdp1-/- hTDP1 cells, no CPT, ATP luminescence, 48 h; activity change, negative = growth inhibition: at 46.2 µM (top of the series)
In short: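 Stably hTDP1-transfected Tdp1-null chicken DT40 cells were treated with library compounds minus camptothecin and grown for at least 48 hr at 37 °C, after which cellular ATP was quantified by luminescence.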
% is scaled to controls: 0 for no effect and ±100 for the full control effect; potency is read from the fitted curve at half-maximal effect; tags tell the direction and shape of the fitted curve.

Row | Structure (SMILES) | Potency | activity change, negative = growth inhibition
1 | CSc1ccc(CN(C)CC(=O)NC(=O)NC(C)(C)C)cc1 | inconclusive: 20.6 µM [inhibitor, partial curve, poor fit] | 
2 | COc1ccc(NC(=O)Cn2nnc(C(=O)NCCc3ccc(OC)c(OC)c3)c2N)cc1 |  | inactive: 0.857%
3 | COc1nccnc1NS(=O)(=O)c1ccc(NC(=S)NC(=O)c2cccc(F)c2)cc1 |  | inactive: -35.5%
4 | COc1ccc(OC)c(CNC(=O)Cn2nc(C)c3c(C)n(-c4ccccc4)nc3c2=O)c1 | inconclusive: 29.1 µM [inhibitor, single point] | 
5 | O=C(Nc1ccc(Cl)cc1)c1ccc2c(c1)N(Cc1ccccc1)C(=O)c1ccccc1S2(=O)=O | active: 23.1 µM | 
6 | Cc1cc2oc(C(=O)Nc3cccc(-c4nc5ccccc5o4)c3)c(C)c2cc1Cl | inconclusive: 2.59 µM [inhibitor, partial curve, poor fit] | 
7 | COc1cc(OC)cc(C(=O)N[C@H](C(=O)N2CCc3ccccc32)C(C)C)c1 | inconclusive: 25.9 µM [inhibitor, single point] | 
8 | CCSc1nc(C2CC2)cc(-c2ccco2)c1C#N | inconclusive: 14.6 µM [inhibitor, partial curve, poor fit] | 
9 | CC(C)CN1C(=O)c2ccccc2C1c1nnnn1-c1ccc2c(c1)OCCO2 (stereo unspecified) |  | inactive: -23.7%
10 | Cc1cc(C)c2nc(SCC(=O)Nc3cc(C)on3)c(C#N)cc2c1 |  | inactive: -18.9%
11 | Cn1c(CNc2ccccc2O)nc2ccccc21 | inconclusive: 23.1 µM [inhibitor, single point] | 
12 | COc1cc(NC(=S)NC(=O)c2c(OC)cccc2OC)ccc1NC(=O)c1cccs1 | active: 9.2 µM | 
13 | COc1ccc(-c2csc(C)n2)cc1Br |  | inactive: -17.1%
14 | CCCCOc1ccc(C(O)(CCN2CCOCC2)c2ccccc2)cc1 (stereo unspecified) | inconclusive: 20.6 µM [inhibitor, single point] | 
15 | Cn1c(=O)cc(OCCCC(=O)Nc2ccccn2)c2ccccc21 | inconclusive: 29.1 µM [inhibitor, single point] | 
16 | CC1=C(C)/C(=N\OS(=O)(=O)c2ccccc2)C=CC1=O | active: 0.562 µM | 
17 | CCCCCN(C(=O)CCC(=O)OCc1cc(C(C)=O)ccc1OC)c1c(N)n(CCCC)c(=O)[nH]c1=O | inconclusive: 18.4 µM [inhibitor, single point] | 
18 | COc1ccc(/C=C/c2c(-c3cccc(C)c3)oc3ccc(-c4ccc5c(c4)OCO5)cc23)cc1 |  | inactive: -6.57%
19 | CCN(CC)C(=O)CN(c1ccc(Cl)cc1)S(=O)(=O)c1ccccc1 | inconclusive: 20.6 µM [inhibitor, single point] | 
20 | COc1cccc(/C=C/c2nc(C#N)c(N(C)Cc3ccccc3)o2)c1 | active: 23.1 µM | 
21 | Cc1ccc(S(=O)(=O)N(C)c2c(C)ccc(S(=O)(=O)N3CCN(C=O)CC3)c2C)cc1 | inconclusive: 29.1 µM [inhibitor, single point] | 
22 | CC(C)(C)c1ccc(C(=O)N2CCN(CCNC(=O)C(=O)Nc3ccc(F)cc3)CC2)cc1 | active: 10.3 µM | 
23 | NC(=O)C1CCN(C(=O)C2CC(=O)N(Cc3ccccc3)C2)CC1 (stereo unspecified) |  | inactive: 20.8%
24 | COc1cc(C(=O)NCc2ccc3c(c2)CCN3C(=O)c2ccncc2)cc(OC)c1OC | inconclusive: 20.6 µM [inhibitor, single point] | 

Row | Structure (SMILES) | Potency | activity change, negative = growth inhibition
25 | COc1ccc(C(=O)/C=C/c2ccc(O)cc2)c(O)c1CC=C(C)C | inconclusive: 16.4 µM [inhibitor, single point] | 
26 | O=C1C2ON(c3ccccc3)C(c3ccncc3)C2C(=O)N1c1ccc(Br)cc1 (stereo unspecified) |  | inconclusive: -33.1% [inhibitor]
27 | COc1ccc(N2CCN(C(=O)c3ccc(Cn4nc(C)c([N+](=O)[O-])c4C)o3)CC2)cc1 | active: 13 µM | 
28 | Cc1[nH]nc2c1C(C(C)C)C(C#N)=C(N)O2 (stereo unspecified) | inconclusive: 16.4 µM [inhibitor, partial curve] | 
29 | Cc1cccc(-n2c(N)c(-c3nc4ccccc4n3C)c3nc4ccccc4nc32)c1 | inconclusive: 29.1 µM [inhibitor, single point] | 
30 | CCOc1ccc(CNC(=O)COc2cc(=O)n(C)c3ccccc23)cc1 | inconclusive: 29.1 µM [inhibitor, single point] | 
31 | O=C(CCl)N1CCN(C(=O)C2COc3ccccc3O2)CC1 (stereo unspecified) | active: 3.66 µM | 
32 | Cc1ccc(NC(=O)c2cc(-c3ccc4c(c3)OCO4)on2)cc1 | inactive and inconclusive: 23.1 µM [inhibitor, single point] | 
33 | Cc1cc(Cl)ccc1OCCCC(=O)N1CCCc2ccccc21 | inconclusive: 18.4 µM [inhibitor, partial curve] | 
34 | CCOC(=O)c1c(C)c(C(=O)N2CCc3ccccc3C2)c(C)n1CC | active: 25.9 µM | 
35 | O=C(NCC(c1cccs1)N1CCOCC1)c1cn(-c2ccccc2)nc1-c1ccc(Cl)cc1 (stereo unspecified) | inconclusive: 18.4 µM [inhibitor, single point] | 
36 | Cc1cccc(C)c1-n1c(C)cc(/C=N/NC(N)=S)c1C | active: 8.2 µM | 
37 | CCc1cc2c3c([nH]c2cc1S(=O)(=O)N1CCC2(CC1)OCCO2)CCCC3=O | active: 16.4 µM | 
38 | COc1ccc(NC(=O)c2ccc(S(=O)(=O)N3CCCC3)cc2)cc1OC |  | inactive: -0.368%
39 | COc1cc(NC(=O)c2cccs2)c(C(=O)OCC(=O)NCc2ccccc2)cc1OC | inconclusive: 29.1 µM [inhibitor, single point] | 
40 | CC(C)N1CC(C(=O)Nc2cccc([N+](=O)[O-])c2)CC1=O (stereo unspecified) |  | inactive: -21.7%
41 | N#Cc1c(Nc2ccccc2)sc(C(=O)c2ccc(F)cc2)c1N | inconclusive: 29.1 µM [inhibitor, single point] | 
42 | Cc1ccc(-c2csc(/C(C#N)=C/Nc3ccccc3SC(F)(F)F)n2)cc1 | inconclusive: 11.6 µM [inhibitor, partial curve, poor fit] | 
43 | Cc1ccccc1N(CC(=O)N/N=C/c1cc(Br)c(C)o1)S(C)(=O)=O | inconclusive: 29.1 µM [inhibitor, single point] | 
44 | CC1(C)Cc2c(cnn2-c2ccccc2)C(=O)/C1=N\NC(=O)c1ccncc1 |  | inconclusive: -33.4% [inhibitor]
45 | COC(=O)[C@@]1(Cc2ccccc2)[C@H]2C(=O)N(C)C(=O)[C@H]2[C@H]2CN=C(SCc3ccc(Cl)cc3)N21 | active: 11.6 µM | 
46 | Cn1c(SCC(=O)NNC(=O)c2ccccc2O)nnc1-c1ccccc1 | inconclusive: 29.1 µM [inhibitor, single point] | 
47 | COCCN(Cc1ccccc1)C(=O)c1cccc(S(=O)(=O)N(C)c2c(C)n(C)n(-c3ccccc3)c2=O)c1 |  | inactive: -23.5%
48 | Cc1ccc(OC2CCN(C(=O)[C@H]3O[C@@H](n4ccc(=O)[nH]c4=O)[C@H](O)[C@@H]3O)CC2)cc1 | inconclusive: 16.4 µM [inhibitor, single point] | 

Row | Structure (SMILES) | Potency | activity change, negative = growth inhibition
49 | COc1ccc(C(=O)C(CN2CCCC2)c2ccccc2)cc1 (stereo unspecified) | active: 3.16 µM | 
50 | CCOCCn1c(=O)c2c(nc3n2CC(C)CN3Cc2ccccc2)n(C)c1=O (stereo unspecified) | inconclusive: 29.1 µM [inhibitor, single point] | 
51 | COc1ccc(/C=C2\CCC/C(=C\c3ccc(OC)c(OC)c3OC)C2=O)c(OC)c1OC | active: 16.4 µM | 
52 | Cc1cc(C)n2c(SCC(=O)Nc3c(C)n(C)n(-c4ccccc4)c3=O)nnc2n1 |  | inactive: 7.83%
53 | COc1ccccc1/C=C\C=N\n1c(-c2ccc(Cl)cc2Cl)n[nH]c1=S |  | inactive: -11.8%
54 | COc1cccc(NC(=O)c2cc(CN3CCOCC3)on2)c1 |  | inactive: 10.1%
55 | COc1ccc(CNCc2cc3c(C(C)(C)C)nn(-c4ccccc4)c3[nH]c2=O)cc1 | active: 18.4 µM | 
56 | COC(=O)CN(c1cc(Cl)ccc1OC)S(=O)(=O)c1ccc(C)cc1 | active: 18.4 µM | 
57 | O=C(Nc1nnc(CCS(=O)(=O)c2ccc3ccccc3c2)s1)c1ccc([N+](=O)[O-])cc1 | inconclusive: 6.51 µM [inhibitor, single point] | 
58 | COC(=O)c1sccc1NC(=S)N1CCN(c2ccccc2F)CC1 |  | inactive: 8.24%
59 | Cc1nn2c(=O)cc(COC(=O)c3ccc(C(C)(C)C)cc3)nc2s1 | inconclusive: 23.1 µM [inhibitor, single point] | 
60 | CCC1CCCCN1C(=O)CSc1nc2c(c(=O)n(C)c(=O)n2C)n1C (stereo unspecified) |  | inactive: -29.5%
61 | Cc1cc(C(=O)Cn2nc(C(=O)O)c3ccccc3c2=O)c(C)n1CCc1ccc(Cl)cc1 | inconclusive: 20.6 µM [inhibitor, single point] | 
62 | O=C1COc2ccc(C(=O)COC(=O)Cc3ccsc3)cc2N1 |  | inactive: -6.94%
63 | CCCCCCCCCCCCCCCC[N+](C)(C)Cc1ccccc1 | active: 0.944 µM | 
64 | O=C(c1cc(-c2ccccc2)nc2ccccc12)N1CCN(c2ccccc2O)CC1 | active: 18.4 µM | 
65 | COc1ccc(OC)c(C2C(C(C)=O)=C(O)C(=O)N2CCc2ccc(OC)c(OC)c2)c1 (stereo unspecified) |  | inactive: -4.57%
66 | CCN1C(=O)[C@H]2[C@@H](c3ccc(-c4ccc(C(C)=O)cc4)cc3)N3CCCC[C@@]3(C(=O)OC)[C@H]2C1=O | active: 11.6 µM | 
67 | O=C(Nc1nnc(SCc2cccc3ccccc23)s1)C1COc2ccccc2O1 (stereo unspecified) |  | inactive: -11.2%
68 | COc1ccccc1N1CCN(C(=O)CSc2nc3ccccc3c(=O)n2CC2CCCO2)CC1 (stereo unspecified) | inconclusive: 23.1 µM [inhibitor, single point] | 
69 | COc1ccc(CCNc2nc(C)c(C(C)=O)s2)cc1OC | inconclusive: 20.6 µM [inhibitor, single point] | 
70 | CCc1cc(C(=O)N2CCN(C(=O)c3ccco3)CC2)sc1C |  | inactive: -24.3%
71 | O=C(COc1ccc([N+](=O)[O-])cc1)N(Cc1ccccc1)Cc1ccccc1 | inconclusive: 29.1 µM [inhibitor, partial curve, poor fit] | 
